Screen size: about 48,000 compounds; about 450 (0.94%) were called active. Roughly 19% stayed inconclusive and do not appear here. The call rests on the fitted dose curve; in most records, active means well fitted inhibition curve with a large enough effect; inconclusive means small, poorly fitted or top-dose-only effect; inactive means no such curve, though single readings can be large or run the other way. Some of the results follow.
Assay: Primary qHTS for Identification of Small Molecule Inhibitors of Huntingtin Promoter Activity; further: nearly all actives have a fitted effect of over 50% in size
Settings: HEK293 HTT promoter firefly luciferase reporter (activity 0% = vehicle and -100% = no light), 24 h; series mostly up to 57.5 µM; activity change, negative = inhibition: at the top concentration
Procedure, shortened: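 Firefly luciferase signal from promoter-reporter HEK293 cells was scaled between vehicle (0%) and zero RLU (-100%). Compounds were tested at final concentrations of up to 57.5 uM over 24 h at 37 degrees C. PTC124 at 50 uM final served as control inhibitor.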
Potency means the concentration at half of the fitted maximal effect.

Structure (SMILES)	activity change, negative = inhibition	Potency
Cc1c(C(=O)N(Cc2ccc(N(C)C)cc2)CC2CCCO2)oc2ccc(Cl)cc12 (stereo unspecified)	inactive: -2.93%	–
COc1ccc(N2CCN(c3csc4ccc(Cl)cc4c3=O)CC2)cc1	inactive: 5.3%	–
COc1ccc(CNC(=O)c2cc(-c3ccc(C)cc3)nc3n[nH]c(-c4ccc(Br)cc4)c23)cc1	inactive: -13.3%	–
CCc1ccccc1Nc1nn2c(=O)c3ccc(C(=O)NCc4ccccc4OC)cc3nc2s1	inactive: -14.3%	–
CCOc1ccc(Nc2ncnc3c2nc2n3CCCC2)cc1	inactive: -10.4%	–
CCOC(=O)c1c(C)[nH]c(C)c1S(=O)(=O)N1CCCC(C(=O)Nc2ccc(C)cn2)C1 (stereo unspecified)	inactive: -14.4%	–
O=C1OC(CN2CCOCC2)CN1/N=C/c1ccc([N+](=O)[O-])o1 (stereo unspecified)	inactive: 6.8%	–
COc1ccccc1Cn1cc(C(=O)c2ccc(C)cc2)c(=O)c2cc(C)ccc21	inactive: -5.04%	–
CCN(c1ccccc1)c1ccc2cc(S(=O)(=O)N3CCCC3)ccc2n1	inactive: 2.97%	–
Cc1ccc(-n2nc(CO)c(C(=O)NCCCc3ccccc3)n2)cc1C	inactive: 9.8%	–
CCOc1ccccc1CNC(=O)c1c(C)oc2ncnc(N3CCOCC3)c12	inactive: -9.08%	–
CCOc1ccc(NC(=O)CSc2ccc(-c3sc(-c4ccccc4)nc3C)nn2)cc1	inactive: 10%	–
CCOC(=O)c1oc2ccc(S(=O)(=O)n3nc(-c4cc(OC)c(OC)c(OC)c4)cc3N)cc2c1C	inactive: -27.6%	–
CCOC(=O)CNC(=O)Nc1cc(C(=O)NCc2ccccc2OC)ccc1N1CCCC1	inactive: -6.11%	–
Cc1ccccc1C(=O)NC1(C(F)(F)F)N=C(c2ccccc2)N(C2CCCCC2)C1=O (stereo unspecified)	inactive: -11.9%	–
CCOc1ccc(NC(=O)C2CCCN(c3ccc(Sc4ccc(C)cc4)nn3)C2)cc1 (stereo unspecified)	inactive: -3.4%	–
O=C(NC(=O)c1ccccc1)Nc1ccc(-c2cc(C(F)(F)F)nn2-c2ccccc2)cc1	inactive: 4.2%	–
COC(=O)C(CCSC)NC(=O)c1cc2c(n(-c3ccc(Cl)cc3)c1=O)CCCC2=O (stereo unspecified)	inactive: -1.57%	–
CCCn1c(CNC(=O)c2ccc(F)cc2)nc2ccccc21	inactive: 0.406%	–
Cc1ccc2oc(-c3ccc(C)c(NC(=O)c4ccc(N5CCC(C)CC5)c([N+](=O)[O-])c4)c3)nc2c1	inactive: 2.63%	–
O=c1c2cc3c(cc2n(Cc2ccc(F)cc2)c(=O)n1Cc1nc(-c2ccccc2)no1)OCO3	inactive: -5.56%	–
Cc1cccc(NC(=O)c2ccc3snnc3c2)c1C	inactive: -0.964%	–
CC(C)CN(CCCNC(=O)CN1N=C(c2ccc(Cl)cc2)CCC1=O)CC(C)C	inactive: -11%	–
Clc1ccc2c(c1)NC(c1ccncc1)=NC(c1cccs1)=N2	inactive: -7.09%	–

Structure (SMILES)	activity change, negative = inhibition	Potency
C[C@]12C=CC(=O)C=C1CC[C@@H]1[C@@H]2[C@@H](O)C[C@@]2(C)[C@@H]1CC[C@]2(O)C(=O)CO	inactive: -0.457%	–
CCOc1ccccc1NC(=O)C(CC(C)C)NS(=O)(=O)c1ccc2c(c1)oc(=O)n2C (stereo unspecified)	inactive: -0.779%	–
COC(=O)c1c(SC)nc2ccccc2c1OCc1ccc(Cl)cc1	inactive: -37.7%	–
O=C(COCc1cc(-c2ccc3c(c2)OCO3)on1)N1CCN(c2cccc(Cl)c2)CC1	inactive: -12.4%	–
CNS(=O)(=O)c1cn(CC(=O)N2CCN(c3cccc(C)c3C)CC2)cc1S(=O)(=O)NC	inactive: -7.05%	–
Cc1ccc(S(=O)(=O)N(Cc2nc(-c3cccc(C)c3)no2)C2CCCCC2)cc1	inactive: -30.2%	–
O=c1cc(-c2ccccc2)nc(SCc2nc(-c3ccc(Cl)cc3)no2)[nH]1	inactive: 7.53%	–
CCN1CCN(C(=O)c2cnn(-c3cccc(Cl)c3)c2C2CCN(C(=O)OC(C)(C)C)CC2)CC1	inactive: -11%	–
Cc1ccsc1C(=CCCN1CCC[C@@H](C(=O)O)C1)c1sccc1C	inactive: 3.39%	–
CSC1=NC2(CCN(C(=O)NC3CCCCC3)CC2)N=C1c1ccc(C)cc1	inactive: -15.9% [at 11.5 µM]	–
COc1ccc(N2Cc3cccc(C(=O)Nc4cc(C)cc(C)c4)c3C2=O)cc1	inactive: 3.43%	–
Cc1noc(-c2ccc(-c3noc(-c4cccc(F)c4)n3)cc2)n1	inactive: 0.0129%	–
NC(=O)C1CCN(C(=O)c2cccc(NC(=O)c3nsc4ccccc34)c2)CC1	inactive: 43.4%	–
Cn1c(=O)c2c(nc(SCC(=O)Nc3ccccc3)n2Cc2ccccc2F)n(C)c1=O	inactive: 1.08%	–
CCN(CC)S(=O)(=O)c1nnc(NC(=O)COc2ccccc2F)s1	inactive: -7.45%	–
Nc1c(C(=O)Nc2ccc(OC(F)(F)F)cc2)nnn1Cc1ccccc1	inactive: 9.54%	–
CCc1c(CN2CCN(c3cccc(C)c3C)CC2)csc1C	inactive: -9.89%	–
O=C(C1COc2ccccc2O1)N(Cc1cccnc1)c1nc2ccc(Cl)cc2s1 (stereo unspecified)	inactive: -5.06%	–
Cc1ccc(C#N)c(=O)n1CC(=O)Nc1ccccc1C(F)(F)F	inactive: -8.99%	–
Cc1ccc(-n2c3nc(=O)[nH]c(=O)c-3cc3c(C)nn(-c4ccccc4)c32)cc1Cl	inactive: -4.03%	–
O=C(NC1CCCCC1)c1ccc(Cn2c(SCc3ccc(F)cc3)nc3cccnc32)cc1	inactive: 6.22%	–
Cc1ccc2c(c1)-c1onc(C(=O)N3CCN(c4ccc(Cl)cc4)CC3)c1CO2	inactive: -5.56%	–
Cc1cccc(C)c1NC(=O)NCCc1c[nH]c2ccccc12	inactive: -6.56%	–
CCCNC(=O)C1CCC(Cn2c(=O)c3sccc3n(Cc3ccccc3F)c2=O)CC1 (stereo unspecified)	inactive: 2.38%	–

Structure (SMILES)	activity change, negative = inhibition	Potency
CNCCCN1c2ccccc2CCc2ccccc21	inactive: -10.6%	–
COc1ccccc1CNC(=O)CCn1nc(C)c2c(C)n(-c3ccccc3)nc2c1=O	inactive: -15.8%	–
O=S(=O)(c1ccccc1)c1nnn2c1nc(NCc1ccc(F)cc1)c1sccc12	inactive: 8.35%	–
Brc1ccc(-c2nc3ccccn3c2Nc2ccc3c(c2)OCCO3)o1	inactive: -20.3%	–
CCOC(=O)c1c(S(=O)(=O)N2CCC(C(=O)NCc3ccc(F)cc3)CC2)c(C)n(C)c1C	inactive: -11.2%	–
C=Cc1ccc(Cn2c(C(=O)O)c(CNC3CCCC3)c3ccc(C)cc32)cc1	inactive: -8.68%	–
Cc1cccc(N(C)C(=O)CCS(=O)(=O)c2ccc3c(c2)oc(=O)n3C)c1	inactive: -9.08% [at 11.5 µM]	–
COc1ccc(OCC(=O)NC2CC(=O)N(c3cccc(OC)c3)C2)cc1 (stereo unspecified)	inactive: -17%	–
CCN(CC)CCOc1ccccc1C(=O)CCc1ccccc1	inactive: -7.41%	–
COc1ccc(NC(=O)c2cc(S(=O)(=O)N3CCCCCC3)cn2C)c(OC)c1	inactive: -4.37%	–
O=C(NCc1ccccc1Cl)C1CCCN(S(=O)(=O)c2cccc3nsnc23)C1 (stereo unspecified)	inactive: -16.5%	–
COc1ccc(OC)c(CNC(=O)c2c3c(nc4ccccc24)C(=O)N(C2CCCCC2)C3)c1	inactive: -0.669%	–
CCC(=O)N1CCc2cc(Br)cc(S(=O)(=O)N3CCN(c4ccc(C)cc4)C(C)C3)c21 (stereo unspecified)	inactive: -0.642%	–
CCOC(=O)c1c(C)[nH]c(C)c1S(=O)(=O)N1CCC(C(=O)N2CCN(c3ccccc3)CC2)CC1	inactive: -12.7%	–
Cc1ccccc1-c1noc(-c2cccnc2NCc2ccco2)n1	inactive: 49.2%	–
CCOCCn1ccc2c(OCC(=O)NCc3ccc(C)cc3)cccc2c1=O	inactive: 0%	–
CN(C)CCNC(=O)c1ccc2c(c1)N(Cc1ccccc1)C(=O)c1ccccc1S2(=O)=O	inactive: -15.3%	–
COc1ccc(-c2cn3nc(N4CCCC(C(=O)Nc5cccc(Cl)c5C)C4)sc3n2)cc1 (stereo unspecified)	inactive: -18.2%	–
O=C1c2[nH]nc(-c3ccccc3O)c2C(c2cccc(O)c2)N1Cc1ccncc1 (stereo unspecified)	inactive: -9.04%	–
O=C(Cn1cc(C(=O)c2ccncc2)c(=O)c2cc(F)ccc21)Nc1ccc(Cl)cc1	inactive: -26%	–
COCCCNC(=O)N1[C@H](c2cccs2)[C@@H](C)C(=O)[C@@H](C)[C@@H]1c1cccs1	inactive: -23.6%	–
O=C(CN1C(=O)COc2ccc(S(=O)(=O)N3CCCC3)cc21)N1CCN(c2ccc(Cl)cc2)CC1	inactive: -21.9%	–
COc1cccc(-n2cc(C(=O)OCc3ccc(F)c(F)c3)c3ccccc3c2=O)c1	inactive: -14%	–
C=CC(=O)Nc1cccc(Nc2nc(NC3CCC(N(C)C)CC3)nc3c2ncn3C(C)C)c1 (stereo unspecified)	inactive: -38.2%	–

Structure (SMILES)	activity change, negative = inhibition	Potency
CCCCNc1nc2c(c(=O)n(C)c(=O)n2C)n1CC(O)COc1ccccc1C (stereo unspecified)	inactive: -30%	–
Cc1nn(C)c2c1c(C(F)(F)F)cc(=O)n2CC(=O)N1CCCCC1	inactive: 9.49%	–
O=C(O)c1cccc(Nc2ncnc3ccc(Br)cc23)c1	inactive: -6.72%	–
CCOC(=O)c1c(NC(=O)c2ccc(Br)cc2)sc2c1CCCC2	inactive: 14.1%	–
COc1ccc(C(=O)Nc2nnc(S(=O)(=O)N3CCCc4ccccc43)s2)cc1	inactive: -1.03%	–
Cc1ccc2nc(-c3cccc(NC(=O)c4ccc(Br)o4)c3)oc2c1	inactive: 10.3%	–
CCOc1ccccc1-n1nnc(-c2nc(-c3ccccc3C)no2)c1C	inactive: -3.69%	–
Cc1ccc(NC(=O)CSc2ccc3nnc(CCNS(=O)(=O)c4ccccc4)n3n2)cc1Cl	inactive: -11.4%	–
Cc1ccc(Cl)cc1NC(=O)N1CCC(CN2CCCCCC2)CC1	inactive: -13.8%	–
Cc1ccc2cc(CN(C)C(=O)c3cccc(Cl)c3)c(=O)[nH]c2c1	inactive: -33.1%	–
Cc1ccccc1NC(=O)c1cccc2c(=O)c3c([nH]c12)CCCC3	inactive: -22.7%	–
Nc1ccc(/C=C/c2ccc(N)cc2S(=O)(=O)O)c(S(=O)(=O)O)c1	inactive: -2.85% [at 0.739 µM]	–
Cc1cccc(Nc2ccccc2C(=O)O)c1C	inactive: 8.57%	–
CCCCC(=O)OCc1cc(=O)n2nc(C3CCCCC3)sc2n1	inactive: -13.7%	–
CCC1CN(C(=O)Nc2cc(C)ccc2OC)c2cc(Cl)ccc2O1 (stereo unspecified)	inactive: -18.1%	–
COC(=O)c1ccc(NC(=O)CC2Nc3cc(C)c(C)cc3NC2=O)cc1 (stereo unspecified)	–	active: 25.1 µM
Cc1cc(C)n(-c2nc3ccccc3nc2Nc2ccc(Cl)c(Cl)c2)n1	inactive: -2.13%	–
Cc1cc(C)cc(OCC(=O)NC(Cc2c[nH]c3ccccc23)C(=O)O)c1 (stereo unspecified)	inactive: -24.4%	–
Cc1cccc(OCC(=O)Nc2c(C(=O)N3CCN(c4ccccc4F)CC3)oc3ccccc23)c1	inactive: -0.532%	–
CCOc1cc(N)c(Cl)cc1C(=O)NCC1CN(Cc2ccc(F)cc2)CCO1 (stereo unspecified)	inactive	–
CCCc1cc(=O)n2[nH]c(NC(=O)c3ccccc3Cl)nc2n1	inactive: -6.07%	–
CCOC(=O)N1CCN(C(=O)CN(c2cccc(Cl)c2)S(=O)(=O)c2ccccc2)CC1	inactive: -17%	–
CCCN(C(=O)c1cc2c(=O)oc3ccccc3c2s1)c1cccc(Cl)c1	inactive: -0.255%	–
CCOC(=O)c1ccc(N2C(=O)c3[nH]nc(-c4ccc(OC)cc4)c3C2c2ccccc2Cl)cc1 (stereo unspecified)	inactive: -2.06%	–

— PubChem BioAssay AID1508623 (National Center for Advancing Translational Sciences (NCATS), 2021)
